Results reported in PubChem BioAssay AID686978 (National Center for Advancing Translational Sciences (NCATS), 2013).
Where “and” joins values, the source holds several entries; their conditions need not be identical. Identical values can stand only once. About 64,000 (15%) of roughly 420,000 compounds were called active. Inconclusive results, whose numbers are uncertain, are shown with a selection of clear calls. The call rests on the fitted dose curve; in most records, active means well fitted inhibition curve with a large enough effect; inconclusive means small, poorly fitted or top-dose-only effect; inactive means flat fitted curve, though single readings scatter. Potencies beside an inconclusive call are fits to weak or partial responses and may not hold up.

Assay: qHTS for Inhibitors of human tyrosyl-DNA phosphodiesterase 1 (TDP1): qHTS in cells in absence of CPT; further: nearly all actives have a fitted effect of over 55% in size
Conditions: DT40 Tdp1-/- hTDP1 cells, no CPT, ATP luminescence, 48 h; activity change, negative = growth inhibition: at 46.2 µM (top of the series) unless noted
How it was run: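 DT40 Tdp1-/-;hTDP1 cells, no CPT (DMSO vehicle only), 400 cells/well; compounds pin-transferred; ≥48 hr, 37 °C; CellTiter-Glo 30 min RT dark, luminescence read.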
On the % scale 0 is the no-effect control and ±100 the full control effect; potency means the concentration at half of the fitted maximal effect; tags describe the fitted curve by direction and shape.

SMILES | Potency | activity change, negative = growth inhibition
COc1ccccc1CN1CC[C@@]2(CCCN(C(=O)c3cc(C(F)(F)F)cc(C(F)(F)F)c3)C2)C1 | inconclusive: 29.1 µM [inhibitor, single point] | 
CN1CCN(c2nc3cc(N4CCOCC4)ccc3s2)CC1 |  | inconclusive: -34.1% [inhibitor]
Cc1ccc(-c2nnc(Nc3cccc(O)c3)c3ccccc23)cc1S(=O)(=O)N1CCCCC1 | inactive | 
CN1CCC(n2[nH]c(-c3ccccc3)c(Cc3ccccc3)c2=O)CC1 | inconclusive: 29.1 µM [inhibitor, single point] | 
O=C(C[C@@H]1C/C=C\C[C@@H](Cc2ccc(F)cc2)C(=O)OCCNC1=O)NCCO | inactive | 
O=C(C[C@H]1C[C@H]2c3cc(NS(=O)(=O)c4ccc(F)cc4)ccc3O[C@H]2[C@H](CO)O1)NCc1ccncc1 | inactive | 
CCCn1c(SCC(=O)C(C)(C)C)nc2ccccc21 | inactive | 
COCCNC(=O)Cn1cc2c(n1)CCCCC2 | inactive | 
O=C(O)Cc1ccc(O)c(O)c1 | inconclusive: 20.6 µM [inhibitor, single point] and inconclusive: 29.1 µM [inhibitor, single point] | 
Cc1ccc(N(Cc2cc3ccccc3[nH]c2=O)C(=O)c2cccc(Cl)c2)cc1 | inconclusive: 16.4 µM [inhibitor, single point] | 
Cc1ccc(Cc2cnc(NC(=O)C3CCCO3)s2)cc1 (stereo unspecified) | inactive | 
Cc1c(CN(C)C(=O)C2CCC(=O)N(Cc3ccccc3F)C2)[nH]c2ccccc12 (stereo unspecified) | inactive | 
Cc1ccc(-c2nc3cc(C)c(Br)c(C)n3c2Cc2ccccc2)cc1 | active: 7.31 µM | 
COc1ccccc1CNc1nc2ccccc2n1CCN1CCCCC1 | inconclusive: 29.1 µM [inhibitor, single point] | 
CCOC(=O)[C@H]1[C@H]2COc3ccc(C)cc3[C@@H]2N2C(=O)CN(C)C(=O)[C@@]12C | inactive | 
Cc1cccc2c(N=NC(=O)C(C)n3cnc4ccccc4c3=O)c(O)[nH]c12 (stereo unspecified) | inconclusive: 0.731 µM [inhibitor, full curve, poor fit] | 
Cc1ccc(-c2csc(NC(=O)C[n+]3cc(-c4ccc(C)cc4)n4c3CCC4)n2)cc1 | active: 9.2 µM | 
CCc1cc(=O)[nH]c(SCCC(F)=C(F)F)n1 | inactive | 
CCOC(=O)Cc1csc(SC(C)C(=O)NCC(=O)Nc2ccc(F)c(F)c2F)n1 (stereo unspecified) | inconclusive: 11.6 µM [inhibitor, partial curve] | 
Cc1c(CC(=O)N2CCC(C(N)=O)CC2)c(=O)oc2cc3c(cc12)CCC1(CCCCC1)O3 | inconclusive: 20.6 µM [inhibitor, single point] | 
CCN(CC)c1ccc(C=NCCc2ccc(S(N)(=O)=O)cc2)cc1 | inactive | 
COc1cc2c(cc1NC(=O)Nc1ccc(F)cc1)oc1ccccc12 | inconclusive: 16.4 µM [inhibitor, partial curve] | 
CC(C)c1ccc2occ(CC(=O)Nc3ccccc3Cl)c2c1 | inconclusive: 23.1 µM [inhibitor, partial curve] | 

SMILES | Potency | activity change, negative = growth inhibition
CC(C)NC(=O)c1ccc(COc2cccc3ccccc23)o1 | active: 18.4 µM | 
CC(C)NC(=O)C(c1ccccc1)N1Cc2ccccc2C1=O (stereo unspecified) | inactive | 
COc1ccc(Cn2ccc3nc(C)c(C(=O)N4CCN(c5ccccc5OC)CC4)cc3c2=O)cc1 | active: 23.1 µM | 
COc1ccc(OCC2c3cc(OC)c(OC)cc3CCN2C(=O)COc2ccc(Cl)cc2Cl)cc1 (stereo unspecified) | active: 16.4 µM | 
CN(C)CCCN(C(=O)c1ccc(S(=O)(=O)N(C)C)cc1)c1nc2cc3c(cc2s1)OCO3 | inconclusive: 29.1 µM [inhibitor, single point] | 
COc1ccc(CNS(=O)(=O)c2ccc3c(c2)CCN3C(=O)C2CCC2)cc1 | inconclusive: 9.2 µM [inhibitor, partial curve] | 
COc1ccc(-c2noc(CCCC(=O)NCCc3ccccc3)n2)cc1OC | inconclusive: 29.1 µM [inhibitor, single point] | 
O=C1CCc2cc(Br)ccc2O1 |  | inconclusive: -33.8% [inhibitor]
CC(=O)c1cccc(NC(=O)N2C3CCC2CC(NC(=O)C2CC2)C3)c1 (stereo unspecified) | inactive | 
COc1ccccc1CNc1cc(-c2cccc(NS(C)(=O)=O)c2)ncn1 | inconclusive: 20.6 µM [inhibitor, partial curve] | 
COc1ccc(-c2noc(CSc3nc(C)cc(=O)[nH]3)n2)cc1OC | inconclusive: 18.4 µM [inhibitor, partial curve, poor fit] | 
COc1ccc([C@H]2C[C@H](O)[C@@H](n3cc(C4CC4)nn3)CN2C(=O)c2cccs2)cc1 | inactive | 
CCCCCCCCN1C(=O)[C@H](CC(=O)NCc2ccccc2)C[C@@]2(C(=O)OC)CCCCC=C12 | active: 14.6 µM | 
Cc1c(C(=O)N2CCCC2)sc(NC(=O)c2cccc(Cl)c2)c1C#N | active: 25.9 µM | 
CC1=C(C(N)=O)C(c2cccc(C)c2)n2nc(-c3cccc(C)c3)nc2N1 (stereo unspecified) | inconclusive: 23.1 µM [inhibitor, single point] | 
c1ccc(OCCNc2ccn3nc(-c4ccco4)cc3n2)cc1 | inconclusive: 18.4 µM [inhibitor, single point] | 
Cc1ccc(C)c(NC(=O)Cn2c(=O)n(Cc3ccc4c(c3)OCO4)c(=O)c3oc4ccccc4c32)c1 | active: 2.91 µM | 
CN1CCN(C2=NCCO2)CC1 | inactive | 
CC(C)c1c(C(=O)N/N=C/c2c[nH]c3ccccc23)nnn1-c1nonc1N | inconclusive: 0.0046 µM [inhibitor, full curve, poor fit] | 
Cc1ccc(SCC(=O)OCC(=O)N(C)CC(=O)Nc2ccccc2Cl)cc1C | inactive | 
COc1ccc(-c2nc3cc(C)c(Br)c(C)n3c2Cc2ccsc2)cc1OC | inconclusive: 18.4 µM [inhibitor, partial curve] | 
CCCc1nc2c(C)cc(-c3nc4ccccc4n3C)cc2n1Cc1ccc(-c2ccccc2C(=O)O)cc1 | inactive and inconclusive: 23.1 µM [inhibitor, single point] | 
C#C[C@]1(OC(C)=O)CC[C@H]2[C@@H]3CCC4=CC(=O)CC[C@@H]4[C@H]3CC[C@@]21C | active: 11.9 µM | 
